Measurements: PubChem BioAssay AID485344 (National Center for Advancing Translational Sciences (NCATS), 2010)
The campaign covered roughly 340,000 compounds. About 6,900 (2%) were called active. Rule as the data show it: active = inhibition above about 30%; inactive = below that, where a call was filed. This is a selection; strong and weak results do not stand in their true shares. Where no call is shown, the source filed none.

Target: D(2) dopamine receptor (Homo sapiens) (UniProt P14416)
Experiment: HTS Assay for Allosteric Antagonists of the Human D2 Dopamine Receptor: Primary Screen for Antagonists; also: 0% is about no effect
Conditions: HEK293 TREx D2 cells, calcium flux, dopamine EC80; at 10 µM; stronger effect = higher value
Method in brief: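 Compounds are added to dye-loaded, induced HEK293 T-REx cells coupled to calcium release via D2; after a 3 min kinetic read an EC80 dopamine stimulus is given and fluorescence is recorded for 3 more min.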

Sequence of UniProt P14416 (P14416 whole entry, looked up): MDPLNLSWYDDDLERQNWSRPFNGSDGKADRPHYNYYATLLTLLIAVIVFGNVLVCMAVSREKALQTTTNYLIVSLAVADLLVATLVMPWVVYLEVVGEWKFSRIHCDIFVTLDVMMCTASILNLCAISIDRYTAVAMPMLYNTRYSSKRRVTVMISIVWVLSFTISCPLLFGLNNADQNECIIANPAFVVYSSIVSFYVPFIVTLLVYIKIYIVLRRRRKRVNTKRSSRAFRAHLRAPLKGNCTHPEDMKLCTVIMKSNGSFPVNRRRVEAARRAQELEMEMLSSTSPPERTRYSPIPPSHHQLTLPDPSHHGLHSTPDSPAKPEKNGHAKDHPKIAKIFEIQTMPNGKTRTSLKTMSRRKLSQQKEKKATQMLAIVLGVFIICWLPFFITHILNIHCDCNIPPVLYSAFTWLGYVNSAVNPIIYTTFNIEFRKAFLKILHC

Structure (SMILES) | inhibition
CCOc1ccc(CNC(=O)c2ccc(NC(=O)N3CCSc4ncccc43)cc2)cc1 | 2.1%
Cc1ccc(NC(=O)c2cccc(NC(=O)N3CCSc4ncccc43)c2)cc1F | -9.45%
CCCN1C(=O)c2oc3cc(C)cc(C)c3c(=O)c2C1c1ccc(F)cc1 (centres undefined) | -19.9%
CCN(CC)CCCNC(=O)CCc1c(C)nc2c(c1C)c(=O)n(C)c(=O)n2C | -14.2%
Cc1ccc(C)c(NC(=O)c2cnc3sc(N4CCOCC4)nn3c2=O)c1 | 0.497%
COc1ccc(-c2cc(C(F)(F)F)nc(SCC(=O)Nc3ccc(O)cc3)n2)cc1OC | -1.17%
Cc1c(NS(=O)(=O)c2ccc(Cl)cc2)c(=O)n(-c2ccccc2)n1C | -1.79%
Cc1nc2c(c(C)c1CCC(=O)Nc1ccc(F)cc1)c(=O)n(C)c(=O)n2C | 5.08%
COc1ccccc1CCNC(=O)C(=O)NCC(c1cccnc1)N1CCN(c2ccccc2)CC1 (centres undefined) | 24.5%
COc1ccc(C2=NN(CCC(=O)NCCc3ccccc3)C(=O)CC2)cc1 | 3.45%
CCc1cccc(-n2nnc(S(=O)(=O)c3ccc(OC)cc3)c2C)c1 | 19.9%
Cc1cccc(C)c1NC(=O)C1CCCN1S(=O)(=O)c1cccc2nsnc12 (centres undefined) | 12.6%
COc1ccc(NC(=O)Cn2nnc(-c3nc(-c4ccncc4)no3)c2N)cc1OC | -1.41%
Cc1ccc(Cn2cc(CCC(=O)NCC(C)c3ccccc3)c3ccccc32)cc1 (centres undefined) | 3.65%
COc1ccc2cc3cc(C(=O)NCCN4CCN(c5ccccc5F)CC4)oc3nc2c1 | active: 38%
CCCNc1ncnc2c1c(-c1ccccc1)cn2-c1ccccc1 | -0.407%
COc1ccc(-c2nsc(NC(=O)c3oc4ccccc4c3C)n2)cc1 | 25.6%
Cc1coc2c(C)c3oc(=O)c(CCC(=O)N4CCCCC4)c(C)c3cc12 | -16.5%
O=C1CCC(C(=O)OC(C(=O)Nc2cc(Cl)cc(Cl)c2)c2ccccc2)=NN1 (centres undefined) | active: 33.5%
O=C(Cn1ccc2cc(S(=O)(=O)N3CCCCCC3)ccc21)NCc1cccc(Cl)c1 | -1.38%
CN(C)c1ccc(CNC(=O)CCCN2C(=O)CCn3nc(-c4cn(C)c5ccccc45)cc32)cc1 | -23.7%
N#Cc1ccccc1OCC(=O)N1CCN(c2ccccc2)CC1 | 14.6%
CCCN1CCN(CCCNC(=O)c2cc3c(s2)-c2ccccc2OC3)CC1 | -1.82%
COCCn1c(C)cc(O)c(C(c2ccccc2Cl)N2CCCCC2)c1=O (centres undefined) | 11.8%

Structure (SMILES) | inhibition
Cc1ccc2cc3cc(C(=O)N4CCN(c5ccccc5)CC4)sc3nc2c1 | 7.32%
COc1cccc(NC(=O)/C(C#N)=C/c2ccc(-c3ccc(C)cc3)o2)c1 | -0.612%
Cc1ccc(S(=O)(=O)Nc2cccc(-c3ccc(N4CCCC4)nn3)c2)c(C)c1 | -23.8%
O=C(Cn1cc(S(=O)(=O)Cc2cccc(Cl)c2)c2ccccc21)NCc1ccccc1Cl | 7.4%
CC(C)CCSc1nnc2n(-c3ccccc3)c(=O)c3c4c(sc3n12)CC(C)CC4 (centres undefined) | 1.36%
CCOC(=O)c1c(C)[nH]c(C)c1S(=O)(=O)NCC(=O)NCc1cccc(Br)c1 | 3.38%
Cc1cc(C)nc(-n2nc(C)c3c2N(Cc2ccccc2C)C(=O)CC3c2ccc(Cl)cc2)n1 (centres undefined) | 6.04%
COC(=O)c1ccccc1N(C)S(=O)(=O)c1cc2c3c(c1)CC(=O)N3CCC2 | -15.9%
CCc1ccc(NC(=O)Cn2c(=O)nc(-c3ccccc3F)c3cc(Cl)ccc32)cc1 | 8.64%
O=C(Nc1ccc(Oc2ccccc2)cc1)c1ccc(F)c(S(=O)(=O)N2CCN(c3ccccc3F)CC2)c1 | 18.6%
COc1ccc(OC)c(CN2CCN(Cc3cccc4ccccc34)CC2)c1 | active: 71%
COc1cccc(CNC(=O)CCc2c(C)nc3c4c(C)cc(C)nc4nn3c2C)c1 | 6.2%
Cc1ccccc1OCC(=O)Nc1nnc(SCc2cc(=O)n3cc(Cl)ccc3n2)s1 | -7.4%
Cc1ccc(C)c(CN2C(=O)c3ccccc3S(=O)(=O)c3ccc(C(=O)NCCc4ccc(Cl)cc4)cc32)c1 | 24.2%
CCc1ccccc1NC(=O)C1CCN(c2nc3ccccc3[nH]2)CC1 | 0.0486%
Cc1ccc(-n2nc(C)c(C(=O)NCCCN3CCN(c4cccc(Cl)c4)CC3)c2-n2cccc2)cc1 | -13.4%
Cc1ccc(CCNc2nc3ccccc3c3nc(-c4cccnc4)nn23)cc1 | 8.97%
COc1ccc(C(=O)NCc2nc(-c3cccc(C)c3)no2)cc1OC | -20.6%
Cc1nc(-c2ccc(S(=O)(=O)NCc3ccc(F)cc3)cc2)co1 | -15%
COc1cccc(C(=O)COC(=O)c2cc(-c3cccs3)nc3ccccc23)c1 | -7.15%
Cc1cc(NS(=O)(=O)c2cn(C)c(C)n2)ccc1Br | -5.74%
Cc1cccn2c(=O)cc(COc3ccc(NC(=O)C(C)C)cc3)nc12 | 11.4%
Nc1ccc2oc(-c3ccccc3Br)nc2c1 | -5.04%
Cc1ccc(-n2nc(C)c3c(C)cc(=O)n(CC(=O)Nc4cc(Cl)ccc4C)c32)cc1 | 6.37%

Structure (SMILES) | inhibition
Cc1ccccc1NC(=O)CSc1nc2ccc(NC(=O)CCc3ccccc3)cc2s1 | -1.32%
COC(=O)c1sccc1S(=O)(=O)N(CC(=O)Nc1ccccc1C)c1ccc(Cl)cc1 | -0.413%
Cc1ccc2oc(=O)c3cc(C(=O)Nc4ccc(C)c(F)c4)sc3c2c1 | 3.1%
CCc1nnc(NC(=O)CSc2nc3c([nH]c4ccccc43)c(=O)n2-c2ccc(F)cc2)s1 | -0.368%
COc1ccccc1/C=C/c1onc(C)c1S(=O)(=O)N1CCC(C(=O)N2CCC(C)CC2)CC1 | -15.8%
Cc1c(Cl)cccc1NC(=O)c1cc(S(=O)(=O)N2CCCCC2)cn1C | 16.9%
Cc1ccc(NC(=O)C2CCCN(C(=O)c3cnn(-c4ccccc4)c3-n3cccc3)C2)cc1 (centres undefined) | 0.572%
COc1ccc(NC(=O)Cn2c(=O)n(Cc3ccco3)c(=O)c3sc4ccccc4c32)c(OC)c1 | -16.1%
Cc1nn(-c2ccccc2)c(-n2cccc2)c1C(=O)N1CCN(c2ccccc2)CC1 | 16.4%
Cc1cc(OCC(=O)N(Cc2ccc(N(C)C)cc2)Cc2ccco2)cc(C)c1Cl | 4.72%
CCOC(=O)c1ccc(OC(=O)c2cn(-c3ccc(C)cc3)c(=O)c3ccccc23)cc1 | 4.64%
COc1ccc(CNC(=O)c2cc3sccc3n2Cc2ccc(F)cc2)cc1 | 7.3%
COCCCN1C(=O)c2[nH]nc(-c3cc(C)ccc3O)c2C1c1ccc(F)cc1 (centres undefined) | -9.05%
O=C(Nc1noc2ccccc12)c1cccc(Cl)c1Cl | 10.3%
Cc1cccc(OCC(=O)Nc2ccc(S(=O)(=O)Nc3onc(C)c3C)cc2)c1C | -0.158%
COc1ccccc1-c1nc2c(c(SCc3cc(C)ccc3C)n1)Cc1c(CO)cnc(C)c1O2 | -1.07%
CCCNC(=O)Cn1nc(-c2ccc(C)c(C)c2)c2cnc3ccc(OC)cc3c21 | 5.66%
COc1ccccc1NC(=O)Cn1cnc2ccc(S(=O)(=O)N3CCC(C)CC3)cc2c1=O | 13.1%
CCc1ccc(NC(=O)Cn2c(=O)n(CCCC(=O)NCc3ccccc3Cl)c(=O)c3ccccc32)cc1 | 8.91%
Cc1cc(NC(=O)CSc2nc(-c3cccc(F)c3)nc3c2c(=O)n(C)c(=O)n3C)no1 | 1.26%
Cc1ccc(-c2nc3cc(NC(=O)Cc4ccc(Cl)cc4)ccc3o2)cc1 | 7.78%
C=CCn1c(=O)[nH]c2cc(C(=O)N3CC=C(c4ccccc4)CC3)ccc2c1=O | active: 36%
CCOC(=O)C1CCN(CC(O)COc2ccc(C(=O)CC)cc2)CC1 (centres undefined) | active: 55.6%
CCOC(=O)c1ccc(N2CC3=C(C2=O)C(c2ccc(OC)cc2)NC(=O)N3C)cc1 (centres undefined) | 6.28%

Structure (SMILES) | inhibition
Cc1ccc(CN2C3CCCC2CC(NC(=O)c2ccc(C)cc2)C3)cc1 (centres undefined) | active: 74.5%
COc1cc(NS(=O)(=O)c2ccc3c(c2)CC(C)N3C(=O)C2CCC2)cc(OC)c1OC (centres undefined) | -0.928%
CCc1ccc(NC(=O)CN2C(=O)C3CCCN3c3ccc(S(=O)(=O)N(CC)CC)cc32)cc1 (centres undefined) | 4.48%
COc1ccc(CCNc2ncnc3onc(-c4ccc(Cl)cc4)c23)c(OC)c1 | -3.41%
Cn1cc(S(=O)(=O)N2CCCCCC2)cc1C(=O)N1CCN(c2ccccc2F)CC1 | -24.1%
O=C(NC1CCCCC1)c1ccc(-c2ccccc2[N+](=O)[O-])o1 | active: 59.5%
Cc1ccc(N(CC(O)Cn2c3ccccc3c3ccccc32)S(=O)(=O)c2ccc(F)cc2)cc1 (centres undefined) | 3.78%
Cc1ccccc1Nc1sc(C(=O)c2ccccc2)c(N)c1S(C)(=O)=O | 4.74%
Cc1c(CC(=O)N2CCCCC2)c(=O)oc2cc(O)ccc12 | 15.7%
COc1ccccc1NC(=O)c1oc2ccccc2c1NC(=O)Cc1cccs1 | -10.5%
CC(=O)N1CCc2c(sc3c2c(=O)n(CCc2ccccc2)c(=O)n3CC(=O)Nc2ccccc2F)C1 | 1.92%
COc1cccc(NC(=O)Cn2c(=O)n(-c3ccccc3)c(=O)c3ccc(C(=O)NCc4ccc5c(c4)OCO5)cc32)c1 | -2.19%
COc1ccc(-n2c(SCC(=O)c3ccc(Cl)cc3)nc3c([nH]c4ccccc43)c2=O)cc1 | 5.23%
COc1ccccc1N1CCN(c2ccc(=O)n(CC(=O)Nc3cc(F)ccc3C)n2)CC1 | 3.47%
COc1cc2c(cc1OC)C(c1ccc(Cl)cc1)N(c1cccc(C#N)c1)C(=O)C2 (centres undefined) | -0.921%
Nc1c(C(=O)Nc2ccc(C(F)(F)F)cc2)sc2nc(-c3cccs3)ccc12 | 0.362%
COc1ccccc1-c1nnc(C2CCN(S(=O)(=O)c3ccc(CC(C)C)cc3)CC2)o1 | -26%
COc1ccc(NC(=O)c2cn(-c3ccccc3)nc2-c2ccncc2)cc1 | active: 68.4%
COc1cccc(-c2nc(SCc3cccc(Br)c3)n3[nH]c(=O)cc3n2)c1 | 2.76%
COc1ccc(CNC(=O)Nc2ccc3c(c2)N(C)C(=O)c2ccccc2S3)cc1OC | 16%
COc1cc(OC)c(NC(=O)CN2CCCN(Cc3ccccc3C)S2(=O)=O)cc1Cl | 10.3%
Cc1cc(N2CCN(C)CC2)nc2ccc(NC(=S)NCCCN3CCc4ccccc4C3)cc12 | active: 34.1%
